# Experimental data reported in PubChem BioAssay (Tox21).
# Several values for one entry are separate records, joined by “and”; a condition that tells them apart may be missing. Identical values can stand only once. Inconclusive means that the source gave no clear call. Such entries were picked first, then a sample of the others. For some assays here: Potencies beside an inconclusive call are fits to weak or partial responses and may not hold up. Some compounds were tested as several samples or in several runs, with calls that do not always agree. Activity calls are given as the source filed them. Unless noted, calls follow the shape of the dose curve; as a rule, active = well fitted curve in the direction sought with a large enough effect in the repeat runs; inconclusive = weak or mixed curves; inactive = no such curve, though single readings can be large; an effect the other way counts as inactive or inconclusive.
# Tests used:
# [1] = qHTS assay to identify small molecule agonists of the TGF-beta/Smad signaling pathway (AID 1346859; active = well fitted activation curve with a large enough effect in the signal ratio in the repeat runs, not every such curve was filed as active; inconclusive = weak or mixed curves; the % refers to the signal ratio; also: potency is read from the fitted curve at half-maximal effect; as to activation: % is scaled to controls: 0 for no effect and ±100 for the full control effect); details: SBE-bla HEK293T, TGF-beta/Smad beta-lactamase reporter, 5 h; activation: at 76.8 µM (top of the series) unless noted
# Procedure, shortened: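 Read-out: fluorescence at 460 and 530 nm (405 nm excitation) after a 2 hr room-temperature incubation with beta-lactamase FRET substrate. SBE-bla HEK 293T cells had been treated with test compounds for 5 hr at 37 C.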
# [2] = qHTS assay to identify small molecule antagonists of the TGF-beta/Smad signaling pathway (AID 1346924; active = well fitted inhibition curve with a large enough effect in the signal ratio in the repeat runs, not every such curve was filed as active; inconclusive = weak or mixed curves; the % refers to the signal ratio; also: potency is read from the fitted curve at half-maximal effect); details: SBE-bla HEK293T, TGF-beta/Smad reporter, beta-lactamase ratio; activity, negative = inhibition: at 76.8 µM (top of the series) unless noted
# Procedure, shortened: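 SBE-bla HEK 293T cells were plated overnight, then received compound in DMSO plus TGF-beta1 (added as a 0.25 ng/mL solution) and were incubated 5 h at 37 C. Beta-lactamase reporter activity was read after 2 h at room temperature with LiveBLAzer B/G FRET substrate (ex 405, em 460/530 nm).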
# [3] = Caspase-3/7 induction in CHO-K1 cells by small molecules, qHTS cell viability counter screen (AID 1346979); also: potency is read from the fitted curve at half-maximal effect; nearly all actives have a fitted effect of over 35% in size
# Procedure, shortened: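 CHO-K1 wt, 1,500 cells/well; 5hr pre-incubation 37C/5% CO2; compound pin transfer (DMSO); 16hr exposure; CellTiter-Fluor added, 1hr, fluorescence read.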
# [4] = Caspase-3/7 induction in HepG2 cells by small molecules, qHTS cell viability counter screen (AID 1346981); also: nearly all actives have a fitted effect of over 30% in size; also: potency is read from the fitted curve at half-maximal effect
# Procedure, shortened: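 Wild-type HepG2 cells (2,000/well) were allowed to settle for 5 hr at 37 C, 5% CO2, then dosed with compounds in DMSO by pin transfer. After 16 hr at 37 C, CellTiter-Fluor was added and fluorescence read 1 hr later.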
# [5] = target: Nuclear receptor subfamily 1 group I member 2 (Rattus norvegicus) (UniProt Q9R1A7); assay: Rat pregnane X receptor (rPXR) activation by small molecules, qHTS assay (AID 1346983); details: rPXR luciferase reporter cells, One-Glo luminescence, 24 h; max activation: stronger effect = higher value; also: nearly all actives have a fitted effect of over 20% in size; also: potency is read from the fitted curve at half-maximal effect; as to max activation: % is scaled to controls: 0 for no effect and ±100 for the full control effect
# UniProt Q9R1A7, sequence (Q9R1A7 whole entry, looked up): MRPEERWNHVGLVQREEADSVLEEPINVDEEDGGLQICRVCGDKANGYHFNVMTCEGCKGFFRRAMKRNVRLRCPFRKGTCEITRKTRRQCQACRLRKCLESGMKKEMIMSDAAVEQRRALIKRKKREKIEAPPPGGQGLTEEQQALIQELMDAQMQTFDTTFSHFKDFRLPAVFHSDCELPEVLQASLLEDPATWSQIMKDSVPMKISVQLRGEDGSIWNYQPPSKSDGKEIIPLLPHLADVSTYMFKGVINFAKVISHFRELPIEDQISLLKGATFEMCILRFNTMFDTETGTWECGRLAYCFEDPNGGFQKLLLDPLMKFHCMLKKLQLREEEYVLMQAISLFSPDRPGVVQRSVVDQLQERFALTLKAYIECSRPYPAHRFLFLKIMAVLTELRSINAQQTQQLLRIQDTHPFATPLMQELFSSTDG
# Procedure, shortened: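 Luminescent readout (One-Glo luciferase, 30 min room temperature) followed 24 hr compound treatment at 37 C of rPXR cells plated 2,000 per well and preincubated 5hr; qHTS format with compounds delivered in DMSO.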
# [6] = target: Nuclear receptor subfamily 1 group I member 2 (Homo sapiens) (UniProt O75469); assay: Human pregnane X receptor (PXR) activation by small molecules, qHTS assay (AID 1346985); also: potency is read from the fitted curve at half-maximal effect; nearly all actives have a fitted effect of over 40% in size
# Procedure, shortened: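 DPX-2 cells (HepG2 co-transfected with a PXR response element and a CYP3A4-promoter luciferase construct) were seeded at 2,000 per well, rested 5 hr at 37C, then exposed to DMSO-dissolved compounds for 24 hr. Activation was read as luciferase luminescence.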
# [7] = qHTS assay to identify small molecule agonists of the TGF-beta/Smad signaling pathway - cell viability counter screen (AID 1346829); also: nearly all actives have a fitted effect of over 45% in size; also: potency is read from the fitted curve at half-maximal effect
# Procedure, shortened: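 In parallel with the Smad reporter read, viability of HEK 293T cells stably carrying SBE-bla is quantified by ATP luminescence following 5 hr compound treatment.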
# [8] = target: Nuclear receptor subfamily 1 group I member 2 (Homo sapiens) (UniProt O75469); assay: Human pregnane X receptor (PXR) small molecule agonists, qHTS assay (AID 1346982); also: potency is read from the fitted curve at half-maximal effect; nearly all actives have a fitted effect of over 35% in size
# Procedure, shortened: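 PXR-Luc HepG2 cells (CYP3A4 promoter-driven luciferase) were seeded in medium with 5% charcoal-stripped FBS, left 5 hr at 37 C, then exposed to compounds in DMSO for 24 hr. Luminescence was read after ONE-Glo addition.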
# [9] = target: Cytochrome P450 2D6 (Homo sapiens) (UniProt P10635); assay: Cytochrome P450 Family 2 Subfamily D Member 6 (CYP2D6) small molecule antagonists: luciferase reporter qHTS assay (AID 1671196); also: nearly all actives have a fitted effect of over 50% in size; also: potency is read from the fitted curve at half-maximal effect
# UniProt P10635, sequence (P10635 whole entry, looked up): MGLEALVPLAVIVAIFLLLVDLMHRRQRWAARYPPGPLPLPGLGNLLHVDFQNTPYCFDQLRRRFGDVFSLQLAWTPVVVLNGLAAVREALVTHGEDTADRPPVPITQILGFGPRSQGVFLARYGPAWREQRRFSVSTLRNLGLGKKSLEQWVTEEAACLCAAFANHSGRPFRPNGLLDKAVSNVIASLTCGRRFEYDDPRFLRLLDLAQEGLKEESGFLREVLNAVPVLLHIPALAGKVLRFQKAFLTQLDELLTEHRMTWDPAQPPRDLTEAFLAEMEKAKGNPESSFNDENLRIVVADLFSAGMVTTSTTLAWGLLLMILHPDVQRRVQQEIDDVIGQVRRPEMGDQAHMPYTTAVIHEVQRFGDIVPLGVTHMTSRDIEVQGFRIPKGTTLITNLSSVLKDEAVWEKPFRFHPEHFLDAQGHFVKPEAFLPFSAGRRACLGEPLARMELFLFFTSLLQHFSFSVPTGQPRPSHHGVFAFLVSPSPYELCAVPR
# Procedure, shortened: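 CYP2D6 enzyme–substrate mix was held with compound for 10 min at room temperature, then NADPH regeneration solution was added and the reaction ran 1 h at room temperature. Luciferin product was detected by luminescence after 20 min with detection reagent.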
# [10] = Human pregnane X receptor (PXR) small molecule agonists, qHTS cell viability counter screen (AID 1346977); also: potency is read from the fitted curve at half-maximal effect; nearly all actives have a fitted effect of over 50% in size
# Procedure, shortened: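 Fluorescence read-out (CellTiter-Fluor) of viability in PXR-Luc HepG2 cells, multiplexed with the luciferase agonist read. Compounds in DMSO added after 5hr plating; 24hr total exposure at 37C, 5% CO2.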
# [11] = Caspase-3/7 induction in CHO-K1 cells by small molecules, qHTS assay (AID 1346980); also: potency is read from the fitted curve at half-maximal effect; nearly all actives have a fitted effect of over 15% in size
# Procedure, shortened: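 Luminescent Caspase-Glo 3/7 read (30min, room temperature) quantified apoptosis induction. Cells were wild-type CHO-K1, treated with compound for 17hr at 37 C and 5% CO2.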
# [12] = Caspase-3/7 induction in HepG2 cells by small molecules, qHTS assay (AID 1346978); also: potency is read from the fitted curve at half-maximal effect; nearly all actives have a fitted effect of over 15% in size
# Procedure, shortened: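 Caspase-3/7 induction was measured by Caspase-Glo 3/7 luminescence (30 min, room temperature) after a 17 hr compound exposure of wild-type HepG2 cells seeded at 2,000 per well and pre-incubated 5 hr.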
# [13] = target: Nuclear receptor subfamily 1 group I member 2 (Homo sapiens) (UniProt O75469); assay: CYP3A4 induction through human pregnane X receptor (PXR) by small molecules, qHTS assay (AID 1346984); also: % is scaled to controls: 0 for no effect and ±100 for the full control effect; nearly all actives have a fitted effect of over 40% in size
# Procedure, shortened: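 DPX-2 cells (HepG2 co-transfected with PXR and CYP3A4 promoter-luciferase) treated with compounds 24 h at 37C; luciferin-IPA CYP3A4 substrate 3uM final added for 3 h, then One-Glo; luminescence read. qHTS format.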
# [14] = target: Cytochrome P450 2C19 (Homo sapiens) (UniProt P33261); assay: Cytochrome P450 Family 2 Subfamily C Member 19 (CYP2C19) small molecule antagonists: luciferase reporter qHTS assay (AID 1671197); also: potency is read from the fitted curve at half-maximal effect; nearly all actives have a fitted effect of over 65% in size
# UniProt P33261, sequence (P33261 whole entry, looked up): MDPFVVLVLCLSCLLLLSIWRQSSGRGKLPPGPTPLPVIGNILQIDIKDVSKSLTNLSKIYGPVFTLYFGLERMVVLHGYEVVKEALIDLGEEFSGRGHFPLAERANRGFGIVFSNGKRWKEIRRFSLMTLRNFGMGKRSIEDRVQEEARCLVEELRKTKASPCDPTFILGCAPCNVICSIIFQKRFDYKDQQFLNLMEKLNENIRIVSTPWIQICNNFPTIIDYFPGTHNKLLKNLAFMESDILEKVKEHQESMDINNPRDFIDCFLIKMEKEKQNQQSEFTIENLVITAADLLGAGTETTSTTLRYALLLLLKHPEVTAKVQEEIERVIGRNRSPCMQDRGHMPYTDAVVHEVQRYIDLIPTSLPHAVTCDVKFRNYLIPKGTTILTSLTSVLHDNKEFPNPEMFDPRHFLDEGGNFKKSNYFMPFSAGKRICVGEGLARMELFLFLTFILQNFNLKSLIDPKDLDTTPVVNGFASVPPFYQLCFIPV
# Procedure, shortened: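 Compounds were tested on CYP2C19 activity via proluciferin conversion to luciferin. The 37C, 1 h reaction followed NADPH addition; detection reagent stopped it.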
# [15] = target: Thyrotropin-releasing hormone receptor (Homo sapiens) (UniProt P34981); assay: qHTS assay to identify small molecule antagonists of the thyrotropin-releasing hormone receptor (TRHR) signaling pathway (AID 1346877; active = well fitted inhibition curve with a large enough effect in the repeat runs, not every such curve was filed as active; inconclusive = weak or mixed curves; also: potency is read from the fitted curve at half-maximal effect)
# UniProt P34981, sequence (P34981 whole entry, looked up): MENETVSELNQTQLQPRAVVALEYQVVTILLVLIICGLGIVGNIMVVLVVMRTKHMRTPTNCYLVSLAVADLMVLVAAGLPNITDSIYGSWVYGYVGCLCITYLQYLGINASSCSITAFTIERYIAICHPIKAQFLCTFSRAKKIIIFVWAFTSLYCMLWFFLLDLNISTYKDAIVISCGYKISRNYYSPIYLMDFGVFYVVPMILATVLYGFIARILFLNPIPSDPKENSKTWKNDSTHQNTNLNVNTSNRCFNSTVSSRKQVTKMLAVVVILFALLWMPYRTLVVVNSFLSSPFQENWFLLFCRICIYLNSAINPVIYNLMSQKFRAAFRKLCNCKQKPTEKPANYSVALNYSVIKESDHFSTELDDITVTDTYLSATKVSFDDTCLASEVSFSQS
# Procedure, shortened: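 TRHR-expressing HEK293 cells were seeded, cultured 18 h at 37 °C, then loaded with calcium dye for 2 h. Compounds were pre-incubated 5 min at room temperature before 1 nM TRH (final) was added, and kinetic fluorescence was recorded for 3 min.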
# [16] = target: Thyrotropin-releasing hormone receptor (Homo sapiens) (UniProt P34981); assay: qHTS assay to identify small molecule agonists of the thyrotropin-releasing hormone receptor (TRHR) signaling pathway (AID 1346891; calls by dose curve; also: potency is read from the fitted curve at half-maximal effect)
# Procedure, shortened: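 HEK293/TRHR cells, 1500 per well, 18 h 37 °C; Ca dye 2 h 37 °C; pin-tool compound addition (agonist mode); kinetic fluorescence 3 min, 1 s reads; 15 concentrations, triplicate.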
# Tags tell the direction and shape of the fitted curve or compound fluorescence and quenching.
smiles,measurement,setting,value
CC(C)=CC1C(C(=O)OCN2C(=O)C3=C(CCCC3)C2=O)C1(C)C (centres undefined),Potency,[1],"inconclusive: 43.6 µM [rising, partial curve, poor fit] and inconclusive: 7.56 µM [rising, partial curve, poor fit]"
same,Potency,[2],"inconclusive: 0.535 µM [cytotoxic, single point]"
same,Potency,[3],"inconclusive: 68.6 µM [cytotoxic, single point]"
same,Potency,[4],inactive
same,max activation,[5],inactive: -0.665%
same,Potency,[6],"inconclusive: 28.2 µM [activator, single point]"
OC(Cc1ccccc1Cl)(Cn1[nH]cnc1=S)C1(Cl)CC1 (centres undefined),Potency,[7],inactive
same,Potency,[3],"inconclusive: 68.6 µM [cytotoxic, single point]"
same,Potency,[8],"inconclusive: 30.6 µM [activator, partial curve]"
same,Potency,[9],"inconclusive: 31.7 µM [inhibitor, full curve, poor fit]"
N[C@@H](Cc1ccc(N(CCCl)CCCl)cc1)C(=O)O,Potency,[1],inactive
same,"activity, negative = inhibition",[2],inconclusive: -0.471% [at 35.3 µM]
same,Potency,[10],"inconclusive: 33.5 µM [cytotoxic, single point]"
same,Potency,[11],inconclusive: 33.5 µM [activator]
same,Potency,[4],"inconclusive: 29.8 µM [cytotoxic, single point]"
O=[N+]([O-])c1c2ccccc2cc2ccccc12,Potency,[1],"inconclusive: 4.84 µM [rising, full curve]"
same,Potency,[2],inconclusive: 37 µM [fluorescent]
same,Potency,[10],"inconclusive: 67.8 µM [cytotoxic, single point]"
same,Potency,[3],inconclusive: 76 µM [cytotoxic]
same,Potency,[4],"inconclusive: 34 µM [cytotoxic, partial curve]"
same,Potency,[9],active: 2.22 µM
COc1ccc(C=O)cc1OC,Potency,[1],"inconclusive: 31.2 µM [activator, partial curve]"
same,"activity, negative = inhibition",[2],inconclusive: 0.0733%
same,Potency,[10],"inconclusive: 70.8 µM [cytotoxic, single point]"
same,Potency,[8],"inconclusive: 61.8 µM [activator, single point]"
O=C1C(=O)c2cccc3cccc1c23,Potency,[1],inactive
same,"activity, negative = inhibition",[2],inconclusive: -6.45%
same,Potency,[12],"inconclusive: 68.5 µM [activator, partial curve, poor fit]"
same,Potency,[4],inactive
same,Potency,[9],"inconclusive: 25.2 µM [inhibitor, full curve]"
C=C1C[C@@H]2[C@H](CC[C@]3(C)C(=O)CC[C@@H]23)[C@@]2(C)C=CC(=O)C=C12,Potency,[1],"inconclusive: 19 µM [rising, partial curve]"
same,Potency,[2],"inconclusive: 21.3 µM [fluorescent, partial curve]"
same,Potency,[3],"inconclusive: 26.6 µM [cytotoxic, partial curve]"
same,Potency,[5],"inconclusive: 31.6 µM [activator, single point]"
same,Potency,[13],inactive
same,Potency,[6],"inconclusive: 14.1 µM [activator, partial curve, poor fit]"
C=CC(=O)OCCO,Potency,[7],"inconclusive: 54.9 µM [rising, single point]"
same,Potency,[3],"inconclusive: 68.6 µM [cytotoxic, single point]"
C[C@]12CCC(=O)C=C1CC[C@@H]1[C@@H]2CC[C@@]2(C)[C@H]1CC[C@]2(C)O,Potency,[1],"inconclusive: 9.85 µM [rising, full curve]"
same,Potency,[2],inconclusive: 44 µM [fluorescent]
same,Potency,[3],"inconclusive: 29.8 µM [cytotoxic, single point]"
same,Potency,[9],active: 45.2 µM and inactive
O=C(O)CCCOc1ccc(Cl)cc1Cl,Potency,[1],"inconclusive: 5.49 µM [rising, full curve] and inconclusive: 9.95 µM [rising, full curve]"
same,Potency,[2],"inconclusive: 24.5 µM [fluorescent] and inconclusive: 8.87 µM [fluorescent, full curve]"
same,Potency,[3],inconclusive: 26.2 µM
same,Potency,[4],"inconclusive: 17.5 µM [rising, partial curve]"
Clc1cc(C(Cl)(Cl)Cl)cnc1Cl,Potency,[1],"inconclusive: 24.5 µM [rising, partial curve]"
same,Potency,[2],"inconclusive: 38.9 µM [rising, partial curve, poor fit]"
same,Potency,[10],"inconclusive: 68.6 µM [cytotoxic, partial curve, poor fit]"
same,Potency,[12],"inconclusive: 68.6 µM [activator, single point]"
same,Potency,[4],"inconclusive: 54.5 µM [cytotoxic, partial curve, poor fit]"
same,Potency,[14],"inconclusive: 89.4 µM [inhibitor, single point]"
C[CH2][Hg][N]1C(=O)C2C(C1=O)C1(Cl)C(Cl)=C(Cl)C2(Cl)C1(Cl)Cl (centres undefined),Potency,[1],"inconclusive: 4.14 µM [rising, partial curve]"
same,Potency,[15],"inconclusive: 8.07 µM [inhibitor, single point]"
same,Potency,[16],"inconclusive: 8.27 µM [activator, single point]"
same,Potency,[2],"inconclusive: 11.7 µM [rising, partial curve]"
same,Potency,[10],"inconclusive: 16.4 µM [cytotoxic, single point]"
same,Potency,[4],"inconclusive: 16.4 µM [cytotoxic, single point]"
same,Potency,[14],"inconclusive: 19 µM [inhibitor, single point]"
